Consider 46 molecules from PubChem BioAssay AID1508623 (National Center for Advancing Translational Sciences (NCATS), 2021).

Screen size: about 48,000 compounds; about 450 (0.94%) were called active. Inconclusive results (about 19%) are left out. The call rests on the fitted dose curve; in most records, active means well fitted inhibition curve with a large enough effect; inconclusive means small, poorly fitted or top-dose-only effect; inactive means no such curve, though single readings can be large or run the other way. Some of the results follow.

The nature of this assay: Primary qHTS for Identification of Small Molecule Inhibitors of Huntingtin Promoter Activity. Further: nearly all actives have a fitted effect of over 50% in size. The following applies: HEK293 HTT promoter firefly luciferase reporter (activity 0% = vehicle and -100% = no light), 24 h; series mostly up to 57.5 µM; activity change, negative = inhibition: at the top concentration. Summed up: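 Firefly luciferase readout (Dual-Glo, 10 min RT) after 24 h, 37 °C compound exposure (final up to 57.5 uM) of HEK293 reporter cells cultured 24 h beforehand; PTC124 at 50 uM final as control inhibitor; activity scaled vehicle 0%, zero RLU -100%.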
On to `CCOc1ccccc1-c1nc(Cn2c(=O)cc(C)c3c(C)nn(-c4ccccc4)c32)c(C)o1`, for which the “activity change, negative = inhibition” value was inactive: 0%.

With `COC(=O)c1sc(-c2ccccc2)cc1NC(=O)Nc1ccc(F)cc1`, the “activity change, negative = inhibition” value is inactive: -25.1%.

As to `COc1ccc(C(CC(=O)NCc2ccc(Cl)cc2)N2Cc3ccccc3C2=O)cc1OC` (stereo unspecified), the “activity change, negative = inhibition” value was inactive: -29%. The value for `Cc1ccc(OCC(=O)Nc2ccc(S(=O)(=O)Nc3cc(C)on3)cc2)c(Br)c1` was inactive: -26.5% [at 11.5 µM].

With `O=C(NCc1ccccc1Cl)c1ccc(NC(=O)N2CCCCc3ccccc32)cc1`, the “activity change, negative = inhibition” value was inactive: -22.2%. The figure for `CCOc1ccc(NC(=O)CSC2=Nc3ccccc3C3=NC(CC(=O)NCc4ccc5c(c4)OCO5)C(=O)N23)cc1` (stereo unspecified) is inactive: 0.987%. The value for `Cc1ccc(S(=O)(=O)c2c(Nc3cccc(Cl)c3)sc(C(=O)c3ccc4c(c3)OCO4)c2N)cc1` was inactive: -16.5%; that for `COc1ccc(-c2nc3ccccc3n2Cc2ccc(Cl)cc2)cc1` was inactive: -27.7%; that for `Cc1ccc(C(=O)c2oc3ccccc3c2NC(=O)Cc2coc3c(C)c(C)ccc23)cc1` was inactive: -10.9%. The value for `COc1cc(C)ccc1OCCSc1nnc(-c2ccc(C)cc2)o1` was inactive: 9.88%; that for `Cc1cccc(NC(=O)CN(C)S(=O)(=O)c2ccc3c(c2)c(=O)n(C)c(=O)n3C)c1` was inactive: -12.1%. For the molecule `O=C(NCCS(=O)(=O)N1CCN(c2ccccc2)CC1)C1CC(=O)N(c2ccccc2)C1` (stereo unspecified), the “activity change, negative = inhibition” value was inactive: -6.65%. For the molecule `COc1ccccc1C(=O)Nc1ccc(-c2nc3ccccc3s2)c(C)c1`, the “activity change, negative = inhibition” value was inactive: 86.6%.

With `Cc1cc(Br)ccc1NC(=O)C1(S(=O)(=O)c2ccc(Cl)cc2)CC1`, the “activity change, negative = inhibition” value was inactive: -4.51%. The figure for `CCOc1ccc(CCNc2nc3c(-c4ccc(C)cc4)nnn3c3ccccc23)cc1OCC` is inactive: -14.4%; for `Cc1ccc(-c2ccc(=O)n(CC(=O)Nc3ccc(F)c(Cl)c3)n2)cc1C` it is inactive: -9.87%. The value for `COc1cccc(NC(=O)CSC2=Nc3ccccc3C3=NC(CCC(=O)NCc4ccco4)C(=O)N23)c1` (stereo unspecified) was inactive: -21.1%; that for `COc1ccccc1C(=O)Nc1nnc(S(=O)(=O)N2CCCCCC2)s1` was inactive: -29.1%.

As for `COC(=O)c1c(C)sc(-c2c(-c3cccc(OC)c3)[nH]c3c2c(=O)[nH]c(=O)n3C)c1O`, the “activity change, negative = inhibition” value was inactive: 0%. For `CC(=O)Nc1ccc(S(=O)(=O)NC2(C(F)(F)F)NC(=O)N(c3ccc(Cl)cc3)C2=O)cc1` (stereo unspecified), the activity change, negative = inhibition is inactive: -34.1% [at 11.5 µM]. The figure for `COc1ccc(C(=O)N2CCc3cc(OC)c(OC)cc3C2COc2ccccc2OC)cc1` (stereo unspecified) is inactive: -24.7%; for `COc1ccc(C)c2sc(N(Cc3cccnc3)C(=O)CCc3ccccc3)nc12` it is inactive: -24.4%; for `CCCn1c(=O)c2sccc2n2c(CCCC(=O)Nc3ccc(C)c(F)c3)nnc12` it is inactive: -11.7%. On to `O=C(Nc1ccc(Cl)c(Cl)c1)C1CC1`, for which the “activity change, negative = inhibition” value is inactive: -0.179%. The value for `COc1ccc(-c2noc(CN3CCN(c4ccccc4OC)CC3)n2)cc1OC` was inactive: -22.5%; that for `Cc1ccc(C(=O)COC(=O)c2cc(-c3ccc(Cl)cc3)nc3ccccc23)cc1` was inactive: -4.94%; that for `Cc1noc2nc(C(=O)O)nc(N3CCCCC3)c12` was inactive: -5.16%. The value for `Cn1cc(S(=O)(=O)c2ccccc2)c(=O)c2cc(F)c(N3CCCCC3)cc21` was inactive: -27.9%; that for `CCc1nnc(SCC(=O)Nc2cc(Cl)c(OC)cc2OC)c2cc3oc(C)cc3n12` was inactive: -1.87%. Consider `COc1cccc(N2CC(NC(=O)COc3ccc4ccccc4c3)CC2=O)c1` (stereo unspecified), for which the “activity change, negative = inhibition” value was inactive: -12.1%. The figure for `CC(=O)c1ccc(NC(=O)CCn2nc(C)c(S(=O)(=O)N3CCC(C)CC3)c2C)cc1` is inactive: -24.7%; for `CC1CCC(NC(=O)Cn2ncc3c4ccccc4n(Cc4ccc(Cl)cc4)c3c2=O)CC1` (stereo unspecified) it is inactive: 6.1%. As to `Cc1ccc(-n2c(=O)c3ccc(C(=O)NCc4ccco4)cc3n(Cc3cccc(Cl)c3)c2=O)cc1`, the “activity change, negative = inhibition” value was inactive: -11.8%.

In the case of `CC(C)c1cnc2c(c1SCc1cccc(C(F)(F)F)c1)c(=O)n(C)c(=O)n2C`, the “activity change, negative = inhibition” value was inactive: -1.26%. `Cc1cccc(-n2c3nc(=O)n(C)c(=O)c-3cc3c(Cl)cccc32)c1C`: the “activity change, negative = inhibition” value is inactive: -5.79%. The value for `CC(C)CCNC(=O)CSCc1cnn(-c2ccccc2)c1-n1cccc1` was inactive: -23%.

Turning to `CCc1nc(SCC(=O)Nc2ccc(NC(C)=O)cc2)n[nH]1`, the “activity change, negative = inhibition” value is inactive: -8.3%.

In the case of `COC(=O)c1ccccc1NC(=O)Cc1noc2ccc(C)cc12`, the “activity change, negative = inhibition” value is inactive: -9.04%.

In the case of `COc1ccc(NC(=O)Cn2c(=O)n(Cc3nc(-c4ccccc4)no3)c(=O)c3cc4c(cc32)OCO4)cc1Cl`, the “activity change, negative = inhibition” value is inactive: -15.1%.

As to `Cc1cccn2c(=O)cc(COc3cccc(NC(=O)c4ccccc4F)c3)nc12`, the “activity change, negative = inhibition” value was inactive: 4.84%.

Regarding `COc1ccc(CNc2ncnc3c2nnn3C)cc1`, the “activity change, negative = inhibition” value is inactive: -9.62%. Consider `Cc1nn(CC(=O)NCc2ccc(OC(C)C)cc2)c(=O)c2c(C)n(-c3ccc(Cl)cc3)nc12`, for which the “activity change, negative = inhibition” value was inactive: 1.22%. Consider `COc1ccc(CN2C(=O)C(NC(=O)c3ccccc3C)(C(F)(F)F)N=C2c2ccccc2)cc1` (stereo unspecified), for which the “activity change, negative = inhibition” value was inactive: -24.1%. The figure for `CCc1ccccc1NC(=O)Cn1nnc(C(=O)Nc2ccc(C)c(F)c2)c1N` is inactive: 1.22%. In the case of `Cc1ccc2oc(-c3ccc(Cl)c(NC(=O)c4ccc(-c5ccccc5[N+](=O)[O-])o4)c3)nc2c1`, the “activity change, negative = inhibition” value is inactive: 20.8%. The value for `CCCCCOc1ccc(C2c3c(oc4ccccc4c3=O)C(=O)N2c2nc(C)c(C)s2)cc1OCC` (stereo unspecified) was inactive: 6.48%.
